Results published in the supplement of paper PMC10126150.
Sequences with one replicate were seen in a single cluster, so their values are uncertain.

Tested on: ATP
Experiment: switch fluorescence ratio, 500 uM ATP over buffer (Cy3 cluster intensity, sum of 5 cycles each) (fold (ratio)); higher = stronger signal-on switching upon ATP binding; sequences stand for … in TCGTCGGCAGCGTCAGATGTGTATAAGAGACAGTTTTTTTTTTTTTTTTTTTTTTTTT…TC
Details: aptamer strand: ATP DNA aptamer (quencher-CACCTGGGGGAGTATTGCGGAGGAAGG + anchor), 100 nM annealed; ATP concentration: 500 uM; one replicate
Method in brief: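 Between each of five buffer/ATP cycles, the flow-cell was stripped with NaOH and re-annealed. Each cycle imaged Cy3-labelled switching-strand clusters, annealed to 100 nM quencher-labelled ATP aptamer on a modified Illumina MiSeq flow-cell, first in selection buffer and then after 15 min with 500 uM ATP at 22 °C. The fluorescence ratio is summed target-cycle over summed buffer-cycle Cy3 intensity per cluster, averaged per switch-domain sequence, with clusters outside 100-1000 RFU excluded.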
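Further: ATP exposure 15 min at 22 °C before imaging.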

| Sequence | switch fluorescence ratio |
| --- | --- |
| GACGCGTCAA | 0.983 |
| ATGTGTGGCC | 1 |
| ACTCGAAACG | 1.01 |
| CTGGATCATT | 0.993 |
| GTGTGATGTC | 1.05 |
| GGATCCACGA | 0.993 |
| ACCCGTCGGT | 1.06 |
| GAGGATTACC | 0.99 |
| AGCCTTATGT | 0.996 |
| AAGTCGGACT | 1.01 |
| AATAGTCCGG | 0.982 |
| TCTTGTTTCA | 0.976 |
| CTGTTAGGAA | 0.952 |
| AGGAGGACTC | 0.968 |
| ACCGTTTGGG | 0.985 |
| CCGACGATG | 1.93 |
| CTTCAAGGAT | 1.03 |
| AGGTAGTATG | 1.02 |
| ATTGCGACGC | 1.25 |
| CTGCGGAACT | 1.08 |
| ACCAAGCAA | 2.51 |
| ATGGAATCTT | 0.992 |
| GCATATTAAT | 0.963 |

| Sequence | switch fluorescence ratio |
| --- | --- |
| TTGACACTAC | 1.38 |
| TACACTTAGT | 1.06 |
| AGCTAATGT | 0.99 |
| TTATATTAA | 0.987 |
| CACGCCTACT | 1.31 |
| TAGATCTAAA | 1.03 |
| AGAGTGAGCC | 1.07 |
| CGCATAAAGG | 1.08 |
| GATTAGAGAT | 1.03 |
| GAGGTCAAGT | 0.97 |
| CAATAAACCG | 1.12 |
| GCCTACCCTA | 1.1 |
| CAAGTTGGTA | 0.988 |
| TGAATGCATC | 1.01 |
| GAGGTGGCTA | 1.02 |
| CTGAGATAAA | 1.02 |
| AATATCTGCC | 1.08 |
| AAGGGTGTTA | 0.962 |
| TGGGGACAGA | 0.965 |
| CGTGCGTGGT | 1.02 |
| TTGATGCACA | 0.962 |
| TCTGTGAAAC | 1.03 |
| TCCGGGTTCT | 1.03 |

| Sequence | switch fluorescence ratio |
| --- | --- |
| ATGCCGTCCT | 0.953 |
| ACCTAGCAGG | 1.01 |
| TAGTTCCGGC | 1.01 |
| TAATTCTGAT | 0.953 |
| TTTCGGGGTC | 1.07 |
| TCATCCTAAA | 1.18 |
| CCAGTAAACT | 1.07 |
| ATTGCAGAGG | 0.983 |
| TAGACTAATT | 1.01 |
| CCCGTCTGAC | 1.23 |
| CTCGACATTC | 1.36 |
| CCCGATAGCT | 1.12 |
| CGTTTTGCCA | 0.969 |
| TTACATGTTT | 1 |
| GCTGGTGCA | 1.03 |
| TCGGGACGCT | 1.03 |
| TTCCGTGTTT | 1.12 |
| ATTTTTGACT | 1.01 |
| CAAATGGCGT | 1.03 |
| CCATAGACCT | 1.32 |
| ACAGGCAGCA | 1.04 |
| CTGGGCCGAA | 1.06 |
| ATATCTTGAC | 0.982 |

| Sequence | switch fluorescence ratio |
| --- | --- |
| ACGAAAAAA | 0.853 |
| GTGTCCATTA | 1.01 |
| AATCTATCGA | 0.966 |
| CTGTATTCTC | 1.02 |
| CCAGGATTGC | 1.09 |
| CATGAGGAAA | 0.986 |
| CCTACTACAT | 1.13 |
| ACTCATATTT | 1.04 |
| ATATTCTGTA | 0.99 |
| AGACACTAGT | 1.03 |
| ACCTTTGGCC | 1.09 |
| AGTCCGCCCA | 1.41 |
| ACACTATAGA | 1.07 |
| AATGGATGG | 0.989 |
| ACGCGGCTTG | 1 |
| ATACGAAAAC | 1.09 |
| GAGCGTTTG | 0.966 |
| AACGCTGGCT | 1.01 |
| ATCCTCCTTA | 1.12 |
| GCGCGCAAGG | 0.967 |
| ACCCTAACTA | 1.06 |
| AATCGGCCAA | 1.03 |
| TGGGATCCGG | 1.02 |

| Sequence | switch fluorescence ratio |
| --- | --- |
| AGTAGTAAAA | 1.05 |
| TTGGGCCCTA | 0.99 |
| AGACGCAAA | 2.1 |
| AATCTGCAAA | 1.79 |
| TTAGTGGTGC | 1 |
| AAGAGCCTTG | 0.965 |
| TTGTTACGAA | 1.05 |
| CCTTAATATG | 1.04 |
| GCCTGGTGAC | 1.24 |
| TAGCCAGGAG | 1.15 |
| CATGAACTGG | 1.01 |
| TACCTAGGCT | 1.03 |
| AGTAAACAGT | 1.02 |
| TCGGGTATA | 1.01 |
| AGGATGGTGT | 0.993 |
| ATCGTGATCA | 1.03 |
| GAGTGGGTGC | 1.03 |
| GAATGAGTGG | 0.985 |
| ACAGTTTTTG | 1.06 |
| CGACTGCTGA | 1.09 |
| GTTACCAAAT | 0.993 |
| CAAAACGTGT | 0.963 |
| TTCGGCCAGC | 0.993 |

| Sequence | switch fluorescence ratio |
| --- | --- |
| TATTTACATA | 1.05 |
| ATCCTGTGGG | 1.03 |
| GTGTCGCAGT | 1.03 |
| TCACCCCTTT | 1.21 |
| CGGGAAGATC | 1.14 |
| ATGCAGGGGG | 1.01 |
| CGTCTGCCAC | 1.43 |
| GGTCACGTTA | 1.02 |
| GGTAGTGAAG | 1.01 |
| GTTGCGGCAG | 0.981 |
| TTAAGCAAAG | 1.02 |
| TATTCGATGC | 1.14 |
| GCTAAACCAT | 1.02 |
| TACTTGAAGG | 1.04 |
| GGTAACGCGC | 1.01 |
| TATCGATTAC | 1.03 |
| GATTCAGTTT | 0.998 |
| GAATGTTCGT | 0.993 |
| CATACTTTG | 0.975 |
| TGTCGAGAAA | 0.958 |
| AGATGATGTA | 0.997 |
| GAGCGTCTAA | 0.966 |
| CCTATTTGT | 0.983 |

| Sequence | switch fluorescence ratio |
| --- | --- |
| AAATCCGGGC | 1.07 |
| AGGCACATCA | 1.02 |
| AGGTCTGGGG | 1.01 |
| TAAGTTGATT | 0.988 |
| CGTTGAACAA | 1 |
| GGTAATGATG | 1.02 |
| TCGATAATCT | 0.983 |
| TTGCGCAATG | 1.57 |
| TCATGTTAAT | 1.04 |
| TGGACTTACA | 1.31 |
| GGAAGACGGT | 1 |
| GGGTTTCTGA | 1.02 |
| GATTTTTTCC | 1.13 |
| TGAATTGCTG | 0.839 |
| AAATAGATTA | 0.985 |
| GAATGGCACC | 1.03 |
| AGGAATACGT | 1.12 |
| CATGTCCCCG | 1.07 |
| CACGGGGACT | 1.15 |
